PubChem BioAssay AID493208 (National Center for Advancing Translational Sciences (NCATS), 2011)
The campaign covered roughly 44,000 compounds. About 340 (0.77%) were called active. Another 5% or so got no clear call; they are omitted. Calls follow the shape of the dose curve; as a rule, active = well fitted inhibition curve with a large enough effect; inconclusive = small, poorly fitted or top-dose-only effect; inactive = flat fitted curve, though single readings scatter. The list shows a part of the results.

Test: Acumen qHTS Assay for Inhibitors of the mTORC1 Signaling Pathway in MEF (Tsc2-/-, p53-/-) Cells: Sytravon;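 also: plate controls were DMSO for no effect and rapamycin for full effect; nearly all actives have a fitted effect of over 50% in size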
Conditions: phospho-rpS6 immunofluorescence/PI, 24 h; series mostly up to 38.3 µM; activity change, negative = inhibition: at the top concentration
Outline: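 Tsc2-/-, p53-/- mouse embryonic fibroblasts (empty-vector line) exposed to compound 24 hrs at 37 C, fixed, immunostained for phospho-rpS6 and counterstained with propidium iodide. Acumen laser scanning gives % positive cells from Alexa 488/PI ratio, thresholded using 7.5 nM rapamycin; PI count gives viability.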

SMILES	activity change, negative = inhibition
O=C(c1ccccc1Cl)n1nc(-c2cccnc2)nc1NCc1ccc(F)cc1	inactive: -6.4%
CCCCOc1ccc(C(=O)N(Cc2ccc(C(C)C)cc2)C2CCS(=O)(=O)C2)cc1 (configuration not stated)	inactive: -0.31%
COC(=O)c1scc(-c2ccccc2)c1S(=O)(=O)Nc1cccc(C)c1C	inactive: -4.38%
COc1ccc(N2CCN(C3=NS(=O)(=O)C(c4cccc(Br)c4)=C3C)CC2)cc1	inactive: -0.168%
Cc1cc(C)c(NC(=O)CCc2c(C)nc3c(c(C)nn3C(C)(C)C)c2C)c(C)c1	inactive: -9.53%
CCOC(=O)c1ccc(NC(=O)CCc2c(C)nc3nc[nH]n3c2=O)cc1	inactive: 0.608%
COC(=O)c1cc2sc(C)cc2n1Cc1ccc(Br)cc1F	inactive: -0.466%
COc1ccc(C2=NN(CC(=O)NCCCN(C)c3ccccc3)C(=O)CC2)cc1	inactive: -9.23%
COCCNC(=O)C(=O)NCC(c1cccnc1)N1CCN(c2ccccc2F)CC1 (configuration not stated)	inactive: -3.78%
Cc1ccc2oc3c(c(=O)c2c1)C(c1ccc(F)cc1)N(c1nc(C)c(C)s1)C3=O (configuration not stated)	inactive: -16.1%
COc1ccc(C2CC(=O)Nc3c2c(=O)[nH]c2nc4ccccc4n32)cc1OC (configuration not stated)	inactive: 4.49%
COc1ccc(NC(=O)c2nc3nc(C)cc(C(F)F)n3n2)c(C)c1	inactive: -6.84%
CCOC(=O)c1ccc(NC(=O)CC2C(=O)N(c3ccc(F)cc3)C(=O)N2Cc2ccc3c(c2)OCO3)cc1 (configuration not stated)	inactive: -18.3%
Cc1ccc(C)c(NS(=O)(=O)c2cc3c(cc2Cl)NC(=O)CO3)c1	inactive: -2.13%
CCOC(=O)c1cccc(NC(=O)C2CCN(S(=O)(=O)c3cn(C)cn3)CC2)c1	inactive: 0%
CC(C)(C)OC(=O)N1CCC(c2c(C(=O)NCCN3CCC(Cc4ccccc4)CC3)cnn2-c2ccccc2)CC1	inactive: 0%
CCc1ccc(NC(=O)N2CC(C)Oc3ccc(C)cc32)cc1 (configuration not stated)	inactive: 0%
COCCCNc1ncnc2c1cnn2-c1ccc(F)cc1	inactive: -21.2%
CCCn1c(NCc2ccccc2C)nc2ccccc21	inactive: -0.938%
COc1ccc(-n2cc(-c3ccccc3)nc2SCC(=O)Nc2ccccc2)cc1Cl	inactive: 1.28%
CCc1ccc(S(=O)(=O)c2nnn3c2nc(N2CCCC2)c2sccc23)cc1	inactive: 1.07%
Cc1nn(-c2ccc(N3CCCCC3)nn2)c(C)c1CCC(=O)NCc1ccccc1F	inactive: -18.7%
CN1C(=O)Cc2cc(S(=O)(=O)CCC(=O)N3CCN(c4ccccc4F)CC3)ccc21	inactive: -0.48%
COc1ccc(NC(=O)COCc2cc(-c3cccs3)on2)cc1	inactive: -0.781%
Cc1ccccc1C1C=C(c2ccc(Cl)cc2)Nc2nnnn21 (configuration not stated)	inactive: -1%
CCOC(=O)c1ccc(NC(=O)Cn2cnc(S(=O)(=O)N3CCCC3)c2)cc1	inactive: 0%
COc1ccc(-n2nc3c(N4CCCC(C(=O)NCCc5ccc(C)cc5)C4)nnc(C)c3c2C)cc1 (configuration not stated)	inactive: -12%
